From publication PMC4336329 (PLoS ONE, 2015)
Among all 310,000 compounds or so, about 14,000 (4.5%) showed an effect of 50% or more. Effects have a minus sign here. The list shows a part of the results.

Target: human ether-à-go-go-related gene (hERG) potassium channel (human, UniProt Q12809)
Test: primary screen, population patch clamp on CHO cells stably expressing hERG
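Also: peak tail current of the secondary pulse compared with the same well before compound.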

Sequence of human ether-à-go-go-related gene (hERG) potassium channel (Q12809 whole entry, looked up): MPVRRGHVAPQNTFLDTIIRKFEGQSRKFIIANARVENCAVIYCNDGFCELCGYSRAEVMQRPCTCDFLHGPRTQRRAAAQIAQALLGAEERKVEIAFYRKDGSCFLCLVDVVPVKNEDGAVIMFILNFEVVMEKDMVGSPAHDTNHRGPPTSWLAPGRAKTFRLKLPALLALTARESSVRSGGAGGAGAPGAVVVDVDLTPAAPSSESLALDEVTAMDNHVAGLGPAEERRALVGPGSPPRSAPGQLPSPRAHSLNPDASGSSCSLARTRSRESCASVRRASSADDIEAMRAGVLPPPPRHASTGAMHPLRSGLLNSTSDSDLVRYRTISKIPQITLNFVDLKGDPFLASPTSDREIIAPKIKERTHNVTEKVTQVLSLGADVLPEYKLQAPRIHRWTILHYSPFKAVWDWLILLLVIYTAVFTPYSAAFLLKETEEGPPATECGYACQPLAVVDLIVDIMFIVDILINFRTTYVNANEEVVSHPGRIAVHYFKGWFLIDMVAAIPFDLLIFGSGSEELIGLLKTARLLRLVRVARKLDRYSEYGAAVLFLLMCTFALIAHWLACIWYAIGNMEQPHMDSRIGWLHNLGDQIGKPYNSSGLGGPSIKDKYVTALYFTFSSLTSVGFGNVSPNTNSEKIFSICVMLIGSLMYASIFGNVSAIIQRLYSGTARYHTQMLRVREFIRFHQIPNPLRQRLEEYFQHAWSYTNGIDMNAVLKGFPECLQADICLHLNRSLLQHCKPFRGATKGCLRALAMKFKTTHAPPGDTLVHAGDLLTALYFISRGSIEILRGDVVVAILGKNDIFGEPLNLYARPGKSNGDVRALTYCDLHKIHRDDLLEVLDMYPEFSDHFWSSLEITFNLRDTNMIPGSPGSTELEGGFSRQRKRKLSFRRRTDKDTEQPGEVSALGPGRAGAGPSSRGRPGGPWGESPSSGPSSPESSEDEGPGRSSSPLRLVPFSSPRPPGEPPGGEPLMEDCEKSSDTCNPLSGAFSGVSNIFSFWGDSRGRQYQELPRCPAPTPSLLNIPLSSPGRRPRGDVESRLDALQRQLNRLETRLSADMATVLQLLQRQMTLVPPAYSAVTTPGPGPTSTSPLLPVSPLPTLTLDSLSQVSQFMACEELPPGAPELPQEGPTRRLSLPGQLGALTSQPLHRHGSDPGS

**Q.** With COc1cccc(N2CCN(Cc3ncc(-c4ccccc4)o3)CC2)c1 as the compound, how does the “hERG current change (%, negative = inhibition) at 10uM” value read?
**A.** -13%

**Q.** How did the “hERG current change (%, negative = inhibition) at 10uM” value turn out when COc1ccccc1CCNC(=O)C(=O)NCC1OCCN1S(=O)(=O)c1ccc([N+](=O)[O-])cc1 (stereo not drawn) was run?
**A.** -46.7%

**Q.** Which “hERG current change (%, negative = inhibition) at 10uM” value does the source give for CN1CCN(C(=S)NC(=O)c2ccc(-c3ccccc3)cc2)CC1 here?
**A.** -48.4%

**Q.** How did the “hERG current change (%, negative = inhibition) at 10uM” value turn out when CC(C)CCOCC(O)CCC(=O)NNC(=S)Nc1ccccc1 (stereo not drawn) was run?
**A.** 11.6%

**Q.** How did the “hERG current change (%, negative = inhibition) at 10uM” value turn out when COC(=O)c1cccc(C(=O)Oc2cccc(Br)c2)n1 was run?
**A.** -3.42%

**Q.** Which “hERG current change (%, negative = inhibition) at 10uM” value does the source give for COc1ccccc1CNC(=O)CCC(=O)N1Cc2cccc(OC)c2Oc2ncccc21 here?
**A.** -6.77%

**Q.** How did the “hERG current change (%, negative = inhibition) at 10uM” value turn out when CCOC(=O)Nc1cc2c(C)cc(=O)oc2cc1C was run?
**A.** 6.95%

**Q.** For CCSc1sccc1C1C(C#N)=C(N)N(c2cccnc2)C2=C1C(=O)CCC2 (stereo not drawn), which “hERG current change (%, negative = inhibition) at 10uM” value is on record?
**A.** -31.5%

**Q.** Which “hERG current change (%, negative = inhibition) at 10uM” value does the source give for COc1cccc(CC2(CO)CCN(S(=O)(=O)N(C)C)CC2)c1 here?
**A.** 11.9%

**Q.** How did the “hERG current change (%, negative = inhibition) at 10uM” value turn out when O=C(O)C[C@@H](CNC(=O)COc1ccc2ccc(=O)oc2c1)c1ccc(Cl)cc1 was run?
**A.** 4.53%

**Q.** How did the “hERG current change (%, negative = inhibition) at 10uM” value turn out when Cc1ccccc1OCCC(=O)N(CC(=O)Nc1ccccc1C(F)(F)F)Cc1ccco1 was run?
**A.** -11%

**Q.** Which “hERG current change (%, negative = inhibition) at 10uM” value does the source give for CCc1nc(SCC(=O)NCc2ccco2)c2c3c(sc2n1)CCCC3 here?
**A.** -20.1%

**Q.** How did the “hERG current change (%, negative = inhibition) at 10uM” value turn out when CC(=O)c1cccc(NC(=O)CSc2nnc(-c3ccc(S(=O)(=O)N4CCCC4)cc3)o2)c1 was run?
**A.** -18.1%

**Q.** How did the “hERG current change (%, negative = inhibition) at 10uM” value turn out when CCOc1ccc(N(CC(=O)NCCc2ccccc2)C(=O)CCC(=O)Nc2cc(C)ccn2)cc1 was run?
**A.** 4.41%

**Q.** Which “hERG current change (%, negative = inhibition) at 10uM” value does the source give for Cc1ccc(/C=N/Nc2ccccn2)s1 here?
**A.** 14.2%

**Q.** CC(C)N1CCC(N2CCN(C3CCCC3)CC2CCO)CC1 (stereo not drawn) was tested. Which “hERG current change (%, negative = inhibition) at 10uM” value did it give?
**A.** 4.82%

**Q.** With CCOC(=O)c1cnc2c(C)cccc2c1NCc1ccco1 as the compound, how does the “hERG current change (%, negative = inhibition) at 10uM” value read?
**A.** -67.9%

**Q.** For O=C(COc1ccc(S(=O)(=O)N2CCOCC2)cc1Cl)N1CCOCC1, which “hERG current change (%, negative = inhibition) at 10uM” value is on record?
**A.** 15.1%

**Q.** OCCN(CC(O)Cn1ccc2ccccc21)CC(O)Cn1ccc2ccccc21 (stereo not drawn) was tested. Which “hERG current change (%, negative = inhibition) at 10uM” value did it give?
**A.** -1.89%

**Q.** With CC(C)On1c(SCC(=O)N(C)C)nc2ccccc2c1=O as the compound, how does the “hERG current change (%, negative = inhibition) at 10uM” value read?
**A.** 6.51%

**Q.** How did the “hERG current change (%, negative = inhibition) at 10uM” value turn out when Cn1c(-c2ccc(F)cc2)cnc1NCc1cc2c(cc1[N+](=O)[O-])OCO2.O=C(O)C(=O)O was run?
**A.** -57.8%

**Q.** Which “hERG current change (%, negative = inhibition) at 10uM” value does the source give for CCOC(=O)C1CCN(C(=O)COC(=O)C2CCN(S(=O)(=O)c3ccc(C)c(C)c3)CC2)CC1 here?
**A.** -3.24%

**Q.** For O=S(=O)(c1ccccc1)N1CCN(c2nc(-c3cccs3)nc3ccccc23)CC1, which “hERG current change (%, negative = inhibition) at 10uM” value is on record?
**A.** 9.84%

**Q.** For COc1cc(C(=O)Nc2nnc(C(F)(F)F)s2)c([N+](=O)[O-])cc1OC, which “hERG current change (%, negative = inhibition) at 10uM” value is on record?
**A.** 18.4%
